Data published in PubChem BioAssay AID493208 (National Center for Advancing Translational Sciences (NCATS), 2011).
About 340 (0.77%) of roughly 44,000 compounds were called active. Not shown: some 5% with an inconclusive outcome. Calls come from the whole dose curve; as a rule, active = well fitted inhibition curve with a large enough effect; inconclusive = small, poorly fitted or top-dose-only effect; inactive = flat fitted curve, though single readings scatter. Some of the results follow.

assay: Acumen qHTS Assay for Inhibitors of the mTORC1 Signaling Pathway in MEF (Tsc2-/-, p53-/-) Cells: Sytravon; settings: phospho-rpS6 immunofluorescence/PI, 24 h; series mostly up to 38.3 µM; activity change, negative = inhibition: at the top concentration;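 note: plate controls were DMSO for no effect and rapamycin for full effect; nearly all actives have a fitted effect of over 50% in size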
Summary of the method: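 Compounds act on Tsc2-/-, p53-/- fibroblasts carrying an empty vector for 24 h before fixation and dual staining for phospho-S6 and DNA (propidium iodide). Values are percentages of cells above a rapamycin-defined pS6/PI threshold.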

Compound	activity change, negative = inhibition
COc1ccc(C(=O)Nc2ccc(NC(=O)c3cccs3)cc2)cc1OC	inactive: 1.6%
CC1CCN(S(=O)(=O)c2ccc3c(c2)CCN3C(=O)Nc2cccc(Br)c2)CC1	inactive: 0.129%
Cc1ccc(-c2nc3n(n2)C(c2ccccc2Cl)C=C(c2ccc(Cl)cc2)N3)cc1 (stereo not given)	inactive: 7.01%
Cc1ccc(S(=O)(=O)NC2(C(F)(F)F)NC(=O)N(c3ccc(F)cc3)C2=O)cc1 (stereo not given)	inactive: 1.53%
CCOC(=O)c1ccc(CN(Cc2ccc(C)cc2)S(=O)(=O)c2ccc(F)c(C(=O)Nc3ccc(C)c(F)c3)c2)cc1	inactive: 7.27%
CCOc1ccc(C(=O)c2cn(CC(=O)Nc3ccc(OC)cc3)c3cc4c(cc3c2=O)OCO4)cc1	inactive: -11.2%
O=C(NCC(c1ccc2c(c1)OCO2)N1CCN(c2ccccc2)CC1)C(=O)Nc1ccc(F)cc1 (stereo not given)	inactive: -8.55%
CCOC(=O)c1c(C)[nH]c(C)c1S(=O)(=O)N1CCCC(C(=O)Nc2ncccc2C)C1 (stereo not given)	inactive: -0.454%
Cc1oc(-c2ccc(C(=O)NCCC(C)C)cc2)nc1CS(=O)(=O)c1ccccc1	inactive: 0%
CC(C)CCn1c(=O)c2cccnc2n(CC(=O)Nc2ccccc2)c1=O	inactive: -12.6%
N#Cc1c[nH]n2c(NC3CCCC3)c(-c3cccc(Br)c3)nc12	inactive: -25.9%
COC(=O)c1sccc1S(=O)(=O)N(CC(=O)NCc1ccc(C)cc1)c1ccccc1	inactive: 5.8%
CCCC(=O)N1CCc2cc(OC)c(OC)cc2C1COc1ccccc1OC (stereo not given)	inactive: 8.74%
CCOC(=O)Cc1cc(C(=O)Nc2ccc(Br)cc2)sc1-c1ccc(C)cc1	inactive: 2.58%
Cc1nc2sc(C)c(C)n2c(=O)c1S(=O)(=O)N1CCN(c2ccccc2F)CC1	inactive: -0.55%
Cc1cc(C)cc(OCC(=O)Nc2nonc2-c2ccc(Br)cc2)c1	inactive: 1.46%
Cc1c(C(=O)N(Cc2ccc(N(C)C)cc2)CC2CCCO2)oc2ccccc12 (stereo not given)	inactive: 3.97%
Cc1ccc2c(Sc3ccc(Cl)cc3)c(C(=O)NCCC(C)C)[nH]c2c1	inactive: 0.728%
CCCSc1ncc(Cl)c(C(=O)Nc2ccc(S(=O)(=O)N3CCCC(C)C3)cc2)n1 (stereo not given)	inactive: -9.19%
CCc1nnc(SCc2nc(-c3ccccc3Cl)oc2C)c2cc3sc(C)cc3n12	inactive: -2.57%
O=C(Nc1nc2c(F)cccc2s1)c1ccc(S(=O)(=O)N2CCOCC2)cc1	inactive: 4.91%
Cc1ccc(NC(=O)CN2C(=O)c3cccnc3Sc3ccccc32)cc1C	inactive: -6.87%
COc1ccc(CN(C(=O)c2ccccc2F)C2CCS(=O)(=O)C2)cc1 (stereo not given)	inactive: -0.102%
CC(=O)N1c2ccc(S(=O)(=O)N3CCCCCC3)cc2CC1C(=O)NCc1ccccc1 (stereo not given)	inactive: 0%

Compound	activity change, negative = inhibition
O=C(Nc1ccc2oc(-c3ccccc3)nc2c1)c1ccc2ccccc2c1	inactive: 3.68%
COc1cc2c(cc1OC)C(COc1ccc3c(C)cc(=O)oc3c1)N(C(=O)c1cccc(OC)c1OC)CC2 (stereo not given)	inactive: 3.71%
COc1ccc2c(c1)c1c(c(=O)n(Cc3ccccc3)c(=O)n1CC(=O)Nc1cc(C)cc(C)c1)n2C	inactive: -2.65%
CCOc1ccc(NC(=O)N2CCC(CN3CCCCCC3)CC2)cc1	inactive: -9.18%
Cc1cccc(N2CCN(C(=O)c3ccc4c(c3)c(C)c(C)n4C)CC2)c1C	inactive: -3.94%
Cc1cc(C)cc(NC(=O)CSc2oc(-c3ccco3)nc2S(=O)(=O)c2ccccc2)c1	inactive: 4.49%
Cc1ccc2c(n1)sc1c(=O)n(-c3cccc(C(F)(F)F)c3)nnc12	inactive: -1.94%
Clc1ccc(OCc2nc(-c3ccc(-n4cccc4)cc3)no2)cc1	inactive: 4.51%
Cc1ccc(Cl)cc1NC(=O)CCCn1c(=O)c2cccn2c2ccccc21	inactive: 1.83%
COc1ccc(-c2nc3scc(CCNS(=O)(=O)c4cc(F)ccc4OC)n3n2)cc1OC	inactive: 1.17%
CN(C(=O)CSc1nnc(-c2ccc([N+](=O)[O-])cc2)o1)C1CCCCC1	inactive: -1.39%
Cc1ccc(CN2CCSc3ccc(C(=O)Nc4cc(C)cc(C)c4)cc32)cc1	inactive: -16.9%
CC(=O)N1CCc2c(sc3nc(SCC(N)=O)n(-c4ccc(F)c(Cl)c4)c(=O)c23)C1	inactive: 5.78%
Clc1ccc(Nc2c(-c3cccs3)nc3ccc(Cl)cn23)cc1	inactive: -0.0946%
COc1ccc(CCNC(=O)Cn2c(=O)cc(C(F)(F)F)c3c(C)nn(C)c32)cc1OC	inactive: 3.83%
CCc1cccc(NC(=O)c2cc3c(=O)[nH]c4ccccc4c3n2C)c1	inactive: -5.57%
CCOC(=O)c1sc2nc(C)n(CC(=O)Nc3cccc(Cl)c3)c(=O)c2c1C	inactive: 3.32%
Cc1ccc(C)c(CSC2=NC(C)(C)Nc3ccccc32)c1	inactive: -4.5%
COc1ccc(CN(C)S(=O)(=O)c2nnc(NC(=O)C(C)C)s2)cc1OC	inactive: 0%
CC(=O)c1cccc(NC(=O)CSc2nnc3ccc(-c4ccc(Cl)cc4)nn23)c1	inactive: 5.81%
COc1ccccc1NC(=O)C1=C(C)Nc2nc(SCc3ccccc3F)nn2C1c1cccnc1 (stereo not given)	inactive: 0%
Cc1ccc(Cl)cc1NC(=O)c1sc2nc(-c3ccccc3)cn2c1C	inactive: -11.2%
C=CCc1c(C)nc2nc(SCC(=O)Nc3cccc(Cl)c3)nn2c1C	inactive: 4.19%
CC(C)CN(CC(C)C)c1nc(-c2ccc(Cl)cc2)nc2ccccc12	inactive: 2.4%

Compound	activity change, negative = inhibition
CCOC(=O)c1c(C)oc2nc(C)nc(N(CC(C)C)CC(C)C)c12	inactive: 0.273%
O=C(NCCCN1CCN(c2ccc(F)cc2)CC1)C1COc2ccccc2C1 (stereo not given)	inactive: -5.98%
COc1ccc(Cl)cc1NC(=O)Cn1c(=O)n(Cc2nc(C)no2)c(=O)c2ccccc21	inactive: -4.85%
CCc1ccc(NC(=O)c2ccc3c(=O)n4nc(Nc5ccccc5C)sc4nc3c2)cc1	inactive: -2.15%
O=C(Nc1ccccc1C(=O)OCc1cc(=O)n2c3c(sc2n1)CCCC3)c1ccccc1	inactive: 0.235%
O=C(CCS(=O)(=O)c1ccccc1)N(Cc1cccnc1)c1nc2c(Cl)cccc2s1	inactive: -3.59%
CCCCCNC(=O)c1cc2c(=O)n3ccccc3nc2n1C	inactive: -8.58%
Clc1cccc(-n2ncc3c(NCCc4ccccc4)ncnc32)c1	inactive: 3.04%
CCCOc1ccc(C2C(=O)N(C3CCCCC3)CC(=O)N2CCc2ccccc2)cc1OC (stereo not given)	inactive: 0%
CCOC(=O)c1cccc(NS(=O)(=O)c2cc(-c3cnc(C)o3)ccc2OC)c1	inactive: 4.69%
CN(C)C(=O)c1ccc(NC(=O)Cn2nc(-c3ccccc3)c3ccccc3c2=O)cc1	inactive: 0.307%
CCOC(=O)c1c(NC(=O)COc2cc(C)ccc2C(C)C)sc2c1CCCC2	inactive: -1.55%
Cc1cccc(NC(=O)c2c(NC(=O)c3cccs3)sc3c2CCC(C)C3)c1 (stereo not given)	inactive: 5.28%
CCCCNC(=O)C(CC)Sc1nnc(-c2ccc(F)cc2)c(-c2ccc(F)cc2)n1 (stereo not given)	inactive: -2.13%
CC(=O)Nc1ccc(OCc2cc(=O)n3ccccc3n2)cc1	inactive: 1.28%
COc1cccc(CN2CCc3nc(Nc4ccc5c(c4)OCCO5)ncc3C2)c1OC	inactive: 0%
COc1ccccc1N1CCN(C(CNC(=O)C(=O)NCCN(C)C)c2cccnc2)CC1 (stereo not given)	inactive: 7.93%
CCOc1ccc(NC(=O)c2cc(=O)c3cc(CC)ccc3o2)cc1	inactive: 6.86%
Cc1cccc(NC(=O)CSc2nc(=O)n(Cc3ccncc3)c3c2CCC3)c1C	inactive: -6.34%
CCc1ccc(C2=C(C)C(N3CCC(C(=O)Nc4cccc(OC)c4)CC3)=NS2(=O)=O)cc1	inactive: -6.18%
Oc1ccc(/C=C/c2nc(-c3ccccc3O)n(-c3ccccc3)n2)c(O)c1	inactive: 0.649%
CCOc1ccc(NC(=O)CSc2nc(-c3cccs3)cc(C(F)(F)F)c2C#N)cc1	inactive: 1.98%
COc1ccc(CCNC(=O)c2ccc3c(c2)sc2nc(-c4ccc(C)cc4)cn23)cc1OC	inactive: 3.23%
CCOc1ccc(Nc2c(S(=O)(=O)c3ccc(C)cc3)cnc3cc(OC)c(OC)cc23)cc1	inactive: 0.167%

Compound	activity change, negative = inhibition
COc1ccccc1NC(=O)CSC1=Nc2ccccc2C2=NC(CC(=O)NCCc3ccccc3)C(=O)N12 (stereo not given)	inactive: 0.25%
COc1cc(NS(=O)(=O)c2ccc3c(c2)CC(=O)N3)cc(OC)c1OC	inactive: -1.3%
CCc1ccccc1NC(=O)Cn1nnc(-c2nc(-c3ccncc3)no2)c1N	inactive: 0%
Cc1ccc(NC(=O)C2CCN(S(=O)(=O)c3ccc4c(c3)CCCC(=O)N4)CC2)c(Cl)c1	inactive: 1.82%
O=C(NCc1ccccc1Cl)c1ccc2c(c1)nnn2C1CCCC1	inactive: 5.7%
O=C(NC1(C(F)(F)F)C(=O)Nc2c1c(=O)[nH]c(=O)n2CCc1ccccc1)c1ccc(Cl)cc1 (stereo not given)	inactive: 0.737%
CCOc1ccc(NC(=O)CN2CCN(CC(=O)Nc3ccc(N(CC)CC)cc3)CC2)cc1	inactive: 1.72%
COc1cc(NS(=O)(=O)c2ccc3[nH]c(=O)[nH]c3c2)cc(OC)c1	inactive: 7.34%
CCCCC(=O)Nc1ccc2nc(SCC(=O)N3CCOCC3)sc2c1	inactive: -0.689%
Cc1ccc(NC(=O)c2c(C)oc3ncn(C)c(=O)c23)cc1F	inactive: 2.08%
COc1cccc2c1Oc1ncccc1N(c1ccc(C(=O)NCc3ccccc3C)s1)C2	inactive: 2.72%
CC1=C(c2ccc(C(C)C)cc2)S(=O)(=O)N=C1N1CCN(c2ccc(F)cc2)CC1	inactive: -0.988%
O=C(CCCc1ccccc1)NC1CC(=O)N(c2ccc(Cl)cc2)C1 (stereo not given)	inactive: 2.34%
Cc1ccc(Cl)cc1NC(=O)c1ccc(NC(=O)N2CCSc3ncccc32)cc1	inactive: -1.38%
Cc1ccc(OCC(=O)Nc2nnc(SCc3cc(=O)c4ccccc4[nH]3)s2)cc1C	inactive: 5.32%
COc1ccccc1C(=O)n1nc(-c2cccnc2)nc1NCc1ccccc1	inactive: -1.4%
Cc1cccc(-c2nc3c4ccccc4nc(N4CCN(c5ccc(F)cc5)CC4)n3n2)c1	inactive: -1.28%
CN(C(=O)CSc1nc2ccccc2n1CC(=O)N(C)C1CCCCC1)c1ccccc1	inactive: 16.3%
Cc1ccc2c(CNC3CCCC3)c(C(=O)O)n(Cc3ccc(F)cc3)c2c1	inactive: -3.48%
Cc1ccc(C)c(NC(=O)c2cc(S(=O)(=O)NCCc3ccccc3)ccc2F)c1	inactive: 6.26%
COc1ccc(NC(=O)C2CCN(S(=O)(=O)c3cc(-c4noc(C)n4)ccc3C)CC2)cc1	inactive: -1.63%
Cc1cccc(NC(=O)CN2C(=O)CCn3nc(-c4cccn4C)cc32)c1C	inactive: 2.83%
CCCCNC(=O)CCn1c(=O)c2ccccc2n(Cc2cccc(Cl)c2)c1=O	inactive: -16.1%
